Sequences and labels used below:
B1: TPR 5TU (parent)
chain: GGAUCUUCUCGAUCUAACAAAAAAGACAAAUCUGCCACAAAGCUUGAGAGCAUCUUCGGAUGCAGAGGCGGCAGCCUUCGGUGGCGCGAUAGCGCCAACGUUCUCAACUAUGACACGCAAAACGCGUGCUCCGUUGAAUGGAGUUUAUCAUG

Variants at the background level are over-represented here.

This data set covers variants of B1. As to the kind of experiment: polymerase ribozyme fitness, log enrichment relative to wild type (log ratio); higher = more active; in vitro selection for triplet polymerase activity. A digest of the protocol:
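To select mutant libraries of each subunit of a heterodimeric triplet polymerase ribozyme, built by PCR and transcribed, each was annealed with a biotinylated primer, partner subunit and triplets, then incubated frozen at −7 °C. Extended constructs were gel-excised, captured on streptavidin beads and amplified by RT-PCR, in one round carried out in triplicate. Illumina sequencing of input and output libraries kept genotypes with ≥10 input reads and ≥1 read per output. Fitness is the base-2 logarithm of genotype enrichment relative to wild-type enrichment, from inverse-variance-weighted replicate averages.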
Consider A17C G50U U56A G58C G84U, for which the “polymerase ribozyme fitness (log ratio)” value was -1.22.

For A17C A20U A37U A60U G74A G128U U135A, the “polymerase ribozyme fitness (log ratio)” value was at most -4.2.

As for A17C G86C C95A G100C U127C C131A C132G G143U, the “polymerase ribozyme fitness (log ratio)” value is at most -4.2.

Take A17C U90A C93G: the “polymerase ribozyme fitness (log ratio)” value was at most -4.2.

In the case of A17G A40C G48C, the “polymerase ribozyme fitness (log ratio)” value is -1.5.

For A17C G141U, the “polymerase ribozyme fitness (log ratio)” value was 1.61.

With A17G A22G U56A, the “polymerase ribozyme fitness (log ratio)” value is 0.0483.

On to A17C A21U A40G C79A C85U U148G, for which the “polymerase ribozyme fitness (log ratio)” value was at most -4.2.

Turning to A17C A30U U56A G84C C114A, the “polymerase ribozyme fitness (log ratio)” value is at most -4.2.

As for A16U U33G U55A C57U G86U A119U, the “polymerase ribozyme fitness (log ratio)” value is at most -4.2.

For A16U U31A C57A G65A C72A C85G, the “polymerase ribozyme fitness (log ratio)” value is at most -4.2.

In the case of A17C U44A U77G C87U G126U U144G, the “polymerase ribozyme fitness (log ratio)” value was at most -4.2.

A17G A19C G80C G92A C116U G136C G140A: the “polymerase ribozyme fitness (log ratio)” value is at most -4.2.

A17C A30U C72U A120U G133C: the “polymerase ribozyme fitness (log ratio)” value is at most -4.2.

Take A17C C18G A26U A41C U45G A49U U55A G62A G92U C108U C118U: the “polymerase ribozyme fitness (log ratio)” value was at most -4.2.

For A17C U56G C76G, the “polymerase ribozyme fitness (log ratio)” value was at most -4.2.

Take A16U C51G G84U C125U G133C U139C: the “polymerase ribozyme fitness (log ratio)” value is at most -4.2.

On to A17C A20U A37U U55G G71U G83U A89U, for which the “polymerase ribozyme fitness (log ratio)” value is at most -4.2.

For the variant A16U G68A C75A C76U G88U A107U A121G, the “polymerase ribozyme fitness (log ratio)” value was at most -4.2.

As to A16U C96U C99A G133C G141A, the “polymerase ribozyme fitness (log ratio)” value is at most -4.2.

On to A17G A40C A47U U55G G83A C131G, for which the “polymerase ribozyme fitness (log ratio)” value is at most -4.2.

Take A17G A30G C51U G68A A89U U109G C149G: the “polymerase ribozyme fitness (log ratio)” value was at most -4.2.

Consider A16U U31G A37G G83A C96A A106C, for which the “polymerase ribozyme fitness (log ratio)” value was at most -4.2.

For A17G A28C C35A G133U G141C, the “polymerase ribozyme fitness (log ratio)” value is at most -4.2.

As to A16U U61A C93U G140A G143U U148G, the “polymerase ribozyme fitness (log ratio)” value was at most -4.2.

As for A17C U33G G58C A91G U104C U145G, the “polymerase ribozyme fitness (log ratio)” value was at most -4.2.

As for A17C G62U G88U A106U U111G, the “polymerase ribozyme fitness (log ratio)” value was at most -4.2.

On to A16U G42C C93G A138G G140U, for which the “polymerase ribozyme fitness (log ratio)” value was at most -4.2.

In the case of A17C A29U C72U G81C G140U, the “polymerase ribozyme fitness (log ratio)” value is at most -4.2.

In the case of A16U G92C G100A, the “polymerase ribozyme fitness (log ratio)” value was at most -4.2.

Consider A16U C54A G94U C105A G136U, for which the “polymerase ribozyme fitness (log ratio)” value was at most -4.2.

For the variant A16U C38U C54U U56A G81U C87U C116G G133C, the “polymerase ribozyme fitness (log ratio)” value was at most -4.2.

For A17G A37U C51U, the “polymerase ribozyme fitness (log ratio)” value is -2.83.

As for A17C G42A C57G G92U U102G C114U A121C, the “polymerase ribozyme fitness (log ratio)” value is at most -4.2.

For the variant A16U U45A U55G C75A G83A C95U A106U G143A, the “polymerase ribozyme fitness (log ratio)” value was at most -4.2.

On to A17C U33A G48A A91C, for which the “polymerase ribozyme fitness (log ratio)” value is at most -4.2.

Consider A16U G50A A52U U55A C57U G84U C103A A107G, for which the “polymerase ribozyme fitness (log ratio)” value was at most -4.2.

A17G A21C A73U A91G G100U G140U A142G: the “polymerase ribozyme fitness (log ratio)” value was at most -4.2.

Take A16U G46C G50C G67A G74C C118U U130A: the “polymerase ribozyme fitness (log ratio)” value is -4.05.

In the case of A17C A24U C27U G88U A89G A106U A115U C118A, the “polymerase ribozyme fitness (log ratio)” value is at most -4.2.

For the variant A17G A21U A23C A30U U56G C75U C96U, the “polymerase ribozyme fitness (log ratio)” value is at most -4.2.

In the case of A17C C38U A41C A60C, the “polymerase ribozyme fitness (log ratio)” value was -1.39.

On to A16U C54A U101G A119U C149U, for which the “polymerase ribozyme fitness (log ratio)” value is -4.08.

Turning to A17C C18A A22C U56G U111C C123G U139C, the “polymerase ribozyme fitness (log ratio)” value is at most -4.2.

In the case of A16U G25C G34U C93U C105U G124U, the “polymerase ribozyme fitness (log ratio)” value was at most -4.2.

As to A17C U55G C57A G59C C85A A115G A119U, the “polymerase ribozyme fitness (log ratio)” value is -2.46.

In the case of A17C C27G A39G G42U U55A G68C C87G A98G, the “polymerase ribozyme fitness (log ratio)” value was at most -4.2.

In the case of A17C U56A C75A G84U C87A A89G, the “polymerase ribozyme fitness (log ratio)” value was at most -4.2.

For the variant A16U U56A A60U C93U G141U, the “polymerase ribozyme fitness (log ratio)” value was -3.72.

With A16U G25C C72G C76G C96U A107U A115G C129U, the “polymerase ribozyme fitness (log ratio)” value is at most -4.2.

Turning to A16U U61A G74A C96G, the “polymerase ribozyme fitness (log ratio)” value was at most -4.2.

In the case of A17C A60U G81U G83U G86U C93A, the “polymerase ribozyme fitness (log ratio)” value was -0.433.

A17C A19U C76A C87U C96U C114A A147C C149G: the “polymerase ribozyme fitness (log ratio)” value is at most -4.2.

With A17C A21G U56A A73C A91G G94U, the “polymerase ribozyme fitness (log ratio)” value is at most -4.2.

As for A16U G25U C35A A41C U53A C76U C79G A89U C93U U139G, the “polymerase ribozyme fitness (log ratio)” value is at most -4.2.

As for A16U C43U A52C C85G C87U G92A A97U G124A, the “polymerase ribozyme fitness (log ratio)” value was at most -4.2.

With A16U C43A A49C U55C G83A A89C A91U U130A, the “polymerase ribozyme fitness (log ratio)” value was at most -4.2.

On to A17G A29G C96G, for which the “polymerase ribozyme fitness (log ratio)” value was at most -4.2.

Regarding A16U U45A G59U C96U A113G C118A, the “polymerase ribozyme fitness (log ratio)” value was at most -4.2.

For A17G A28C G62U A64U C76U G92U U109G A119C A121G C131A, the “polymerase ribozyme fitness (log ratio)” value is at most -4.2.

Take A16U C75G C87A A98U G124A: the “polymerase ribozyme fitness (log ratio)” value was at most -4.2.

A17C C18U C36A A37U G42A A106G C123A: the “polymerase ribozyme fitness (log ratio)” value was at most -4.2.

As for A17G A29C C75U G92A G140C, the “polymerase ribozyme fitness (log ratio)” value is at most -4.2.

Turning to A17C C32A U53A G67A G74C U101A, the “polymerase ribozyme fitness (log ratio)” value is at most -4.2.

On to A17C U61G C72G C76U C87G, for which the “polymerase ribozyme fitness (log ratio)” value is at most -4.2.

For A16U U55A C105G G133U A147G, the “polymerase ribozyme fitness (log ratio)” value is at most -4.2.

As to A16U G68A C75A C76U G88U A97G A107U A121G, the “polymerase ribozyme fitness (log ratio)” value was at most -4.2.

Turning to A16U G46A G58A G83A A91U A142C, the “polymerase ribozyme fitness (log ratio)” value was at most -4.2.

As for A16U U90G C96U G133U G143A, the “polymerase ribozyme fitness (log ratio)” value is at most -4.2.

A16U U31A G34U G46A G81C A120U: the “polymerase ribozyme fitness (log ratio)” value is at most -4.2.

For A16U U45A A47C G48A C105U C114U, the “polymerase ribozyme fitness (log ratio)” value was at most -4.2.

With A16U G88A U135A G140A, the “polymerase ribozyme fitness (log ratio)” value is at most -4.2.

Take A16U G70A C99G G143C U148C: the “polymerase ribozyme fitness (log ratio)” value was at most -4.2.

For A17G A37U U56A A66G G74A U90A A98U U144A C149G, the “polymerase ribozyme fitness (log ratio)” value is at most -4.2.

As to A17C G34U A47G G84A A110G, the “polymerase ribozyme fitness (log ratio)” value was at most -4.2.

A17C C36A G65C G84U C85G C125U: the “polymerase ribozyme fitness (log ratio)” value was at most -4.2.

On to A17C U45A C54G G74A A91C U139G, for which the “polymerase ribozyme fitness (log ratio)” value was at most -4.2.

Consider A17C C32U G50C U55A, for which the “polymerase ribozyme fitness (log ratio)” value is at most -4.2.

As for A16U G50A C114A U127A, the “polymerase ribozyme fitness (log ratio)” value is at most -4.2.

In the case of A17C C36U A52C G80U G84C A107U U144C, the “polymerase ribozyme fitness (log ratio)” value was at most -4.2.

Turning to A17C A30G C95G, the “polymerase ribozyme fitness (log ratio)” value was -3.8.

As to A17G A28U G50C A98G A115C A121G, the “polymerase ribozyme fitness (log ratio)” value is at most -4.2.

Consider A16U C87A C96A G141A, for which the “polymerase ribozyme fitness (log ratio)” value is at most -4.2.

On to A16U G25U G34C C36G C85U, for which the “polymerase ribozyme fitness (log ratio)” value was at most -4.2.

(Values after the RNAGym collection of RNA variant scans (doi:10.1073/pnas.2313332121).)
